# According to PMC4336329 (PLoS ONE, 2015):
# Among all 310,000 compounds or so, about 2,200 (0.71%) showed an effect of 50% or more. The effect is printed as a negative number. This is one part of the list.
# Target: human ether-à-go-go-related gene (hERG) potassium channel (human, UniProt Q12809)
# Assay: primary screen, population patch clamp on CHO cells stably expressing hERG
# Sequence of human ether-à-go-go-related gene (hERG) potassium channel (Q12809 whole entry, looked up): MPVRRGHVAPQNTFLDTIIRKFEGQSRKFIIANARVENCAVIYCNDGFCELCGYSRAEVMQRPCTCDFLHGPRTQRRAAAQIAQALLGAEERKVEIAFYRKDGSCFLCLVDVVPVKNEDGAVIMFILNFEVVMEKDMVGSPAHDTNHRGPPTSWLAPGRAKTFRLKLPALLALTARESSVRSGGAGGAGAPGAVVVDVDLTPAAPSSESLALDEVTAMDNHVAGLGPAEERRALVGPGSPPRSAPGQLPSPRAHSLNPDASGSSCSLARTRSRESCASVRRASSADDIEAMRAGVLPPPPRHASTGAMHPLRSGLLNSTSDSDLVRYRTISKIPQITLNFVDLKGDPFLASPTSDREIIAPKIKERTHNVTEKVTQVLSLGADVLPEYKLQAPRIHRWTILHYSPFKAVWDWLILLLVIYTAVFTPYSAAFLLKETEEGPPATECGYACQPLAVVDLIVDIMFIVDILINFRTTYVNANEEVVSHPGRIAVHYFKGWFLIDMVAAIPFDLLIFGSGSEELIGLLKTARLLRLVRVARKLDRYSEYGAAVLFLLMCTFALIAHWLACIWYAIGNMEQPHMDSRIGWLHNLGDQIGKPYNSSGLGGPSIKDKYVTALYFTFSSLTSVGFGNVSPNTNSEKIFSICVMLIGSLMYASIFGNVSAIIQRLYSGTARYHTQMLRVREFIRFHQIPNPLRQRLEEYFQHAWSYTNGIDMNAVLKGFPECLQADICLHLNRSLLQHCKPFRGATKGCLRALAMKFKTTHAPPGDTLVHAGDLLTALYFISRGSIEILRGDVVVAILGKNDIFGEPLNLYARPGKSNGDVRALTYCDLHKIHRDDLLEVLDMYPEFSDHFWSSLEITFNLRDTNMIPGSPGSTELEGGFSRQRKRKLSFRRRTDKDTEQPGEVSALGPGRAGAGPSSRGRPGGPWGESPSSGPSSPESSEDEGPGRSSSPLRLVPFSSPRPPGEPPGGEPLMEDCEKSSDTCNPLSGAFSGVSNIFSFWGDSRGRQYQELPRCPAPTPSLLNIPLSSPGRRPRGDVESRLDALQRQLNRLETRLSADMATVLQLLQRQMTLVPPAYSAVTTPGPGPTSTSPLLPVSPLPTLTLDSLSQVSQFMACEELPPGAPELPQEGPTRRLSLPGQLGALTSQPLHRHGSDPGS
row,Structure (SMILES),"hERG current change (%, negative = inhibition) at 1uM [%]"
1,CCOc1ccccc1C(=O)NC1CCN(Cc2ccccc2)CC1,-23.2
2,COC(=O)c1cc(C(=O)NC(C)C2CC3CCC2C3)cc([N+](=O)[O-])c1 (stereo not shown),8.06
3,Cc1nc(-c2ccc(NC(=O)C3CC3)cc2)cs1,11.2
4,O=C(Nc1nccs1)c1cc(Cl)nc2ccccc12,12.7
5,O=c1nc(-c2ccccc2)nc(-c2ccccc2)[nH]1,7.59
6,O=C1CC(c2ccccc2Br)c2cc3c(cc2N1)CCC3 (stereo not shown),9.66
7,CCOc1ccc(S(=O)(=O)Nc2ccccc2SC)c2cccnc12,5.43
8,CCOC(=O)c1c(NC(=O)CSc2nnc(-c3ccccc3)n2CC)sc(C(C)=O)c1C,4.46
9,CCOC(=O)Nc1oc2ccccc2c(=O)c1CN1CCOCC1,10.9
10,COc1ccccc1C(C)NCC(=O)NCc1ccc(C)cc1 (stereo not shown),3.71
11,CC(=O)N1c2ccc(S(=O)(=O)N3CCC(C(=O)NC4CCC(C)CC4)CC3)cc2CC1C (stereo not shown),14
12,CC(C)Oc1ccc(CCN=C(N)N=C(N)N)cc1Cl.Cl,12.5
13,O=C(CCN1CCCCC1c1cccnc1)NCc1ccccc1 (stereo not shown),7.17
14,CCn1c(=O)c2cc(C(=O)N(C)c3ccccc3F)sc2c2ccccc21,0.0672
15,CCn1c(N)c(C(=O)NCC2CCCO2)sc1=S (stereo not shown),15
16,COC(=O)CCC(=O)Nc1ccccc1C(=O)Nc1ccccc1,12.6
17,COc1ccc(CN2C(=O)CS/C2=N/N=C/c2ccccc2)cc1,10.8
18,Cl.O=C(CN1CCN(C2CCCCC2)CC1)Nc1ccccc1-c1ccccc1,-70
19,O=C(COC(=O)C1CC1)Nc1ccc2[nH]c(=O)[nH]c2c1,11.1
20,CC(C)c1nc2sc3c(c2c(=O)o1)CCCC3,9.49

row,Structure (SMILES),"hERG current change (%, negative = inhibition) at 1uM [%]"
1,CCC(=O)N1CCN(c2ccccc2NC(=O)c2ccc([N+](=O)[O-])o2)CC1,-60.5
2,NC(=O)CSc1nnc2ccc(-c3ccco3)nn12,15.4
3,Cc1ccc(NC(=O)Nc2cccnc2)cc1Cl,3.43
4,CC(C)(C)C(=O)Nc1nnc(SCc2ccc(F)cc2)s1,-1.96
5,O=C(CSC1=NS(=O)(=O)c2ccccc2N1)N1CCCCC1,13
6,CCOc1ccc(N(CC(=O)NCc2ccc(OC)cc2)S(=O)(=O)c2c(C)[nH]c(=O)[nH]c2=O)cc1,14
7,CC(NS(=O)(=O)c1ccccc1)c1n[nH]c(=S)n1-c1ccccc1 (stereo not shown),1.37
8,Cn1c(=O)c2c(nc(CN3CCN(C(=O)c4ccco4)CC3)n2CCc2ccccc2)n(C)c1=O,-28.8
9,CCOC(=O)c1ccc(N2NC(=O)/C(=C/c3ccc(OC(=O)c4ccco4)c(OC)c3)C2=O)cc1,13.3
10,COc1ccc(CS(=O)c2nc(C)cc(C)c2S(C)(=O)=O)cc1 (stereo not shown),7.52
11,CCc1ccc(N2CC34C=CC(O3)C(C(=O)OC(C)C)C4C2=O)cc1 (stereo not shown),10.8
12,O=S(N1CCCCCC1)C12CC3CC(CC(C3)C1)C2 (stereo not shown),8.91
13,COc1ccc(OC)c(NC2=NCCCS2)c1,6.68
14,O=C(CSS(=O)(=O)[O-])N1CCN(C(=O)c2ccoc2)CC1.[Na+],15.5
15,O=C1C2N=NN(CC(=O)N3N=C(c4cccc5ccccc45)CC3c3ccccc3)C2C(=O)N1c1ccccc1 (stereo not shown),4.13
16,Cc1cc(C)n(CCN(C)c2nc3nonc3nc2NC2CC2)n1,20.9
17,Cc1ccc(NC(=O)CS(=O)(=O)c2cn(C)c3ccccc23)c(C)c1,7.5
18,Cc1nc2scc(-c3ccccc3)c2c(=O)n1/N=C/c1ccco1,-1.76
19,Clc1cc2c(c(Cn3cnc4ccccc43)c1)OCOC2,16.7
20,CC1(C)C2CCC1(C)C([NH2+]c1ccccc1)C2.[Cl-] (stereo not shown),14.4

row,Structure (SMILES),"hERG current change (%, negative = inhibition) at 1uM [%]"
1,COc1cccc(NC(=S)NC2CC3CCCC(C2)N3C2CCCC2)c1 (stereo not shown),-1.53
2,CS(=O)(=O)O.c1ccc2c(c1)CCc1c(-c3ccncc3)n[nH]c1-2,5.71
3,O=S(=O)(c1ccccc1)N1CCC(O)(CSc2ccc(F)cc2)CC1,12.6
4,CC(CNS(=O)(=O)c1ccc(Br)cc1)CN(C)C (stereo not shown),1.07
5,O=c1cc(N2CCN(c3ccccc3)CC2)[nH]c(=O)n1C1CCCCC1,11.3
6,Cc1c(NC(=O)c2cccc(NS(C)(=O)=O)c2)c(=O)n(-c2ccccc2)n1C,3.72
7,CCc1ccc(OCCCC(=O)Nc2nnc(C3CCCO3)s2)cc1 (stereo not shown),13.5
8,CC(=O)Nc1ccc(NC(=O)N(c2ccccc2)c2ccccc2)cc1,12.2
9,COc1ccccc1CNCc1cccs1.Cl,0.645
10,Cc1onc(-c2ccccc2Cl)c1C(=O)N1CCN(C=O)CC1,11.1
11,O=C(Cc1ccccc1F)Nc1nc(-c2cccnc2)cs1,-5.73
12,COc1ccc(NC(=O)CSc2nnc(-c3ccncc3)o2)c(OC)c1,8.8
13,O=C(CSc1nnc2c(Cl)cc(Cl)cn12)N1CCN(S(=O)(=O)c2ccccc2)CC1,1.61
14,CN(C)S(=O)(=O)c1ccc2c(c1)C(CC(=O)O)NC2=O (stereo not shown),11.2
15,CCC(=O)Nc1cccc(-c2ccc(N3CCCCC3)nn2)c1,5.2
16,CCCCc1nnc(NC(=O)Cc2ccc(OC)c(S(=O)(=O)N3CCOCC3)c2)s1,13.9
17,O=C(/C=C/c1ccc(O)c(O)c1)c1ccc(S(=O)(=O)N2CCCCCC2)cc1,22.8
18,COc1ccc(NC(=O)C2=C(C)C(=O)OC23CCC(C)CC3)cc1Cl (stereo not shown),9.36
